Among all 140,000 compounds or so, about 240 (0.17%) were called active. This list was built around the results that the source calls inconclusive (neither active nor inactive); the mix of calls is not that of the screen. The call rests on the fitted dose curve; in most records, active means well fitted inhibition curve with a large enough effect; inconclusive means small, poorly fitted or top-dose-only effect; inactive means no such curve, though single readings can be large or run the other way. Where the call is inconclusive, the potency comes from a doubtful curve fit.
assay: Primary qHTS assay for inhibitors of alpha-synuclein gene (SNCA) expression; settings: HEK-293 SNCA-luciferase knock-in, luminescence, 24 h; series mostly up to 57.2 µM; further: nearly all actives have a fitted effect of over 45% in size
Potency means the concentration at half of the fitted maximal effect; tags describe the fitted curve by direction and shape.

| Structure (SMILES) | Potency |
| --- | --- |
| COc1ccc(-c2cc3nc4c(c(=O)n3[nH]2)CN(C(=O)c2n[nH]c3c2CCCCCC3)CC4)cc1 | inconclusive: 10 µM [inhibitor, partial curve, poor fit] |
| Cc1nn2c(=O)cc(COC(=O)c3ccc(NC(=O)COc4ccc(C)c(C)c4)cc3)nc2s1 | inconclusive: 14.1 µM [inhibitor, partial curve, poor fit] |
| O=C(NCC1CN(C(=O)Nc2ccccc2)CC12CCOCC2)N1CCCC1 (centres undefined) | inactive |
| COc1ccccc1C1CC(=O)NC(C)=C1C(=O)OC1CCCCCC1 (centres undefined) | inactive |
| Cc1ccc(C2(O)CCN(C(=O)CCn3ccc(=O)[nH]c3=O)CC2)nc1 | inconclusive: 28.2 µM [inhibitor, single point] |
| CCOC(=O)CCNC(=O)N1CCCC(Cn2cnc3cccnc32)C1 (centres undefined) | inconclusive: 15.8 µM [inhibitor, single point] |
| Cc1cc(N)n(CC(=O)N2CCC(O)(CN3CCOCC3)C(C)(C)C2)n1 (centres undefined) | inconclusive: 10 µM [inhibitor, partial curve, poor fit] |
| O=C(CCc1nc2ccccc2s1)N1CCC(c2noc(-c3ccccc3)n2)C1 (centres undefined) | inconclusive: 39.8 µM [inhibitor, single point] |
| CCn1cc2nc(SCc3cc(C)ccc3C)n(CCc3ccccc3)c(=O)c2n1 | inconclusive: 35.5 µM [inhibitor, single point] |
| COCCCn1c(=O)c(C(=O)N2CCN(C(=O)c3ccccc3C)CC2)nc2cccnc21 | inconclusive: 2.82 µM [inhibitor, full curve, poor fit] |
| COc1cc(-c2ccnc3ncnn23)cc(OC)c1OC | inactive |
| Cn1cc(CN(C(=O)Nc2ccccc2)C2CCCCC2)c2ccccc21 | inconclusive: 14.1 µM [inhibitor, partial curve, poor fit] |
| CCN1C(=O)C2CC3(CCN(C(=O)c4ccc(OC)cc4)CC3)CN2C1=O (centres undefined) | inconclusive: 8.91 µM [inhibitor, single point] |
| COc1ccc(-c2nc3sc(CCNC(=O)c4ccco4)c(C)n3n2)cc1 | inconclusive: 39.8 µM [inhibitor, single point] |
| COc1ccc(CNC(=O)C2CCCN2Cc2ccc(-c3cncnc3)cc2)cc1 (centres undefined) | inconclusive: 39.8 µM [inhibitor, single point] |
| O=C(c1cncc(Br)c1)N1CCC(Cc2nc(C3CCOCC3)no2)CC1 | inconclusive: 3.98 µM [inhibitor, partial curve, poor fit] |
| CCCNC(=O)C1CCC(CNS(=O)(=O)c2ccc3c(c2)CC(C)N3C(C)=O)CC1 (centres undefined) | inconclusive: 2.51 µM [inhibitor, full curve] |
| CN1CCN(CC(=O)N2CCCC(c3ccc(Cl)cc3)C2)C1=O (centres undefined) | inconclusive: 22.4 µM [inhibitor, partial curve, poor fit] |
| CN(C)CCNC(=O)C1(C)CN(Cc2ccccc2)Cc2ccc(Nc3ccccc3)nc21 (centres undefined) | inconclusive: 1.58 µM [inhibitor, full curve, poor fit] |
| O=C(Nc1ccccc1)N1CCN(Cc2ccccc2-c2cccnc2)CC1 | inactive |
| O=C(Cc1ccc(Cl)cc1)Nc1cccc(-c2nnc3n2CCCC3)c1 | inconclusive: 14.1 µM [inhibitor, partial curve] |
| Oc1cc(-c2nc3ccccc3s2)cc2c1OCCN(Cc1ncccn1)C2 | inactive |

| Structure (SMILES) | Potency |
| --- | --- |
| CC1=NS(=O)(=O)N(C)C=C1C(=O)OCc1nc(-c2ccc3c(c2)OCO3)no1 | inactive |
| Cc1ccccc1-c1nccc2c(=O)cc(-c3ccncc3)oc12 | inconclusive: 44.7 µM [inhibitor, single point] |
| COc1ccc(-c2cc(C[C@H]3CNCC[C@H]3CC(=O)NCc3ccccc3OC)no2)cc1 | inactive |
| O=C(CC1COCCN1C(=O)CCn1cccc1)NCc1ccccc1F (centres undefined) | inconclusive: 25.1 µM [inhibitor, single point] |
| COCCCNC(=O)c1cc(C2CC2)nc2c1c(C1CCCN1)nn2-c1ccccc1 (centres undefined) | inconclusive: 3.98 µM [inhibitor, single point] |
| CC(C)(C)OC(=O)N1CCC(c2c(C(=O)N3CCN(Cc4ccccc4)CC3)cnn2-c2ccc(Cl)cc2)CC1 | inconclusive: 31.6 µM [inhibitor, single point] |
| Cc1nc2ccccn2c1C(=O)NC(C)c1cnn(-c2ccccn2)c1C (centres undefined) | inactive |
| Cc1ccc(Nc2ccnc(N3CCCC(C(=O)NCC(F)F)C3)n2)cc1 (centres undefined) | inactive |
| Clc1cccc(CN2CC(CNc3cccnc3)C3(C2)CN(c2ccccc2)C3)c1 (centres undefined) | inconclusive: 25.1 µM [inhibitor, single point] |
| CCS(=O)(=O)c1ncc(Cl)c(C(=O)NCc2ccccc2)n1 | inconclusive: 39.8 µM [inhibitor, single point] |
| COCc1nncn1C1CCN(C(=O)c2ccccc2F)CC1 | inconclusive: 2.82 µM [inhibitor, partial curve, poor fit] |
| Cc1ccc(CNC(=O)c2ccc3c(c2)N(C)C2CCCCCN2C3=O)cc1C (centres undefined) | inconclusive: 39.8 µM [inhibitor, single point] |
| CCOc1ccccc1NC(=O)Cn1c(=O)n(-c2ccccc2)c(=O)c2c1cc(C)n2C | inconclusive: 39.8 µM [inhibitor, single point] |
| Cc1ccc(NC(=O)N2CCc3c(C(=O)NC(C)c4cccnc4)cccc32)cc1 (centres undefined) | active: 3.98 µM |
| CCc1noc(-c2cccn3c(CNC(=O)c4ccoc4)nnc23)n1 | inactive |
| CS(=O)(=O)N1C[C@H]2CCN(Cc3cn[nH]c3-c3ccccc3)C[C@H]21 | inconclusive: 10 µM [inhibitor, partial curve] |
| CCn1cc2nc(SCc3cccc(C(F)(F)F)c3)n(Cc3ccc(OC)cc3)c(=O)c2n1 | inconclusive: 1 µM [inhibitor, full curve] |
| Cc1cc(Cl)ccc1S(=O)(=O)N1C[C@@H](C(N)=O)[C@H](C2CCN(C)CC2)C1 | inconclusive: 39.8 µM [inhibitor, partial curve, poor fit] |
| O=C(Nc1cccc(C(F)(F)F)c1)C1CCN(S(=O)(=O)c2cccs2)CC1 | inconclusive: 31.6 µM [inhibitor, single point] |
| CC(=O)Nc1ccc(C(=O)Nc2ccc3c(c2)N(C2CCCC2)C(=O)c2ccccc2S3)cc1 | inconclusive: 31.6 µM [inhibitor, single point] |
| COc1ccc(CNC(=O)O[C@H]2COCCN(c3nc4ccccc4s3)C2)cc1 | inconclusive: 6.31 µM [inhibitor, full curve] |
| COc1ncccc1-c1nc2cc(C(=O)NCc3ccc(F)cc3)ccc2o1 | inactive |

| Structure (SMILES) | Potency |
| --- | --- |
| COc1ccc(NC(=O)CN2C(=O)NC3(CCOCC3)C2=O)c(OC)c1 | inconclusive: 10 µM [inhibitor, partial curve, poor fit] |
| CCOCCCNC(=O)C1CCc2ncc(-c3ccsc3)n2C1 (centres undefined) | inconclusive: 20 µM [inhibitor, single point] |
| NC(=O)c1cccc(CN2CCCC23Cc2ccccc2NC3=O)c1 (centres undefined) | inconclusive: 2 µM [inhibitor, partial curve, poor fit] |
| CN(Cc1cc2n(n1)CCNC2)Cc1nc2ccsc2c(=O)[nH]1 | inconclusive: 6.31 µM [inhibitor, single point] |
| Cc1ccc(C)c(NC(=O)c2nnn(Cc3ccc(F)cc3Cl)c2N)c1 | inconclusive: 39.8 µM [inhibitor, single point] |
| O=C(NCc1ccccn1)c1ccc2nnc(C3CCCC3)n2c1 | inactive |
| Cc1cccc(CSc2nnc(CCCCCN)o2)c1 | active: 14.1 µM |
| COc1ccc(-c2noc(CSc3nnc(Cc4ccccc4)n3-c3cccc(C)c3)n2)cc1 | inconclusive: 12.6 µM [inhibitor, partial curve, poor fit] |
| COc1ccc(/C=C/C(=O)Nc2ccc3nc4c(c(Nc5ccc(OC)c(OC)c5)c3c2)CCCC4)cc1 | inconclusive: 31.6 µM [inhibitor, single point] |
| OCC1(Cc2ccccc2)CCCN(Cc2cnn(-c3cccc(Cl)c3)c2)C1 (centres undefined) | inactive |
| O=C(NCc1ccc(Cl)cc1)c1ccc2nnc(-c3ccc(Cl)cc3)n2c1 | inconclusive: 39.8 µM [inhibitor, single point] |
| COc1ccc(CNC(=O)c2nn(C)c3c2CS(=O)(=O)c2ccccc2-3)cc1 | inconclusive: 7.08 µM [inhibitor, single point] |
| CCOC(=O)C1(Cc2ccccc2F)CCCNC1 (centres undefined) | inactive |
| COc1ccc2[nH]cc(CCNc3ncnc4ccc(-c5ccccc5C#N)cc34)c2c1 | inconclusive: 28.2 µM [inhibitor, single point] |
| CCCN1CCN(CCNC(=O)c2cn3ccnc(-c4ccc(OC)cc4)c3n2)CC1 | inactive |
| O=C(Nc1ccc2nc(SCCOc3ccccc3Cl)sc2c1)c1ccc2c(c1)OCO2 | inconclusive: 39.8 µM [inhibitor, single point] |
| CN1CC(=O)N(C2CCCCC2)Cc2c(NCc3cccs3)ncnc21 | inconclusive: 5.01 µM [inhibitor, partial curve, poor fit] |
| CCOC(=O)C1=C(CN(C)Cc2ccccc2)NC(=O)NC1c1ccc(OC)cc1 (centres undefined) | inconclusive: 28.2 µM [inhibitor, single point] |
| C[S+](=O)([O-])CCn1ncc2cc(OCc3cccc(-c4cccc(CO)c4)c3)ccc21 | inactive |
| Cc1cc(C)c(NC(=O)C(=O)NCC(c2cccnc2)N2CCN(Cc3ccccc3)CC2)c(C)c1 (centres undefined) | inconclusive: 39.8 µM [inhibitor, single point] |

Reference: PubChem BioAssay AID1671194 (National Center for Advancing Translational Sciences (NCATS), 2021)
